B1: CPEB3 Ribozyme (parent)
chain: UAACAGGGGGCCACAGCAGAAGCGUUCACGUCGCAGCCCCUGUCAGAUUCUGGUGAAUCUGCGAAUUCUGCUGUAUAUCUC

The source gives no read counts; variants with many changes may rest on few reads.

The source of these data is the RNAGym collection of RNA variant scans (doi:10.1093/nar/gkz1192).

This data set covers variants of B1. In words: self-cleavage, relative activity (ratio to wild type); higher = more cleavage; in vitro, sequencing. The procedure, abridged:
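Relative activity was defined as the cleaved/total read fraction for a variant divided by the same fraction for the unmutated ribozyme. CPEB3 self-cleaving ribozyme libraries were made by rounds of error-prone PCR, barcoded, and transcribed in vitro with T7 RNA polymerase for 5 hours at 37°C, and cleavage ran through transcription plus a 15 min DNase I step before EDTA. Illumina sequencing of template-switched reverse transcripts gave the reads, and DNA sequencing mapped the barcodes. Averages come from three batches, using variants with at least 5 reads.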
Turning to A13G A28C U43C U51C A64G, the self-cleavage was found to be 0.06. Take A13G A18G G63U: the self-cleavage worked out at 0.37. Take A13G A15G U72C U78C: the self-cleavage was 0.99. For A13G A57G U78A, the self-cleavage was determined as 0.98. For the variant A13G A20U G33A A35G U54C A64G, the self-cleavage was found to be 0.08. With A13G A57G U66C U69C, the self-cleavage came out at 0.29. Consider A13G A18G A20U U31C, for which the self-cleavage stood at 0.12.

With A13G A15U U26C G70A U76C, the self-cleavage amounted to 0.2.

In the case of A13G A45G U48C U69A U78A, the self-cleavage is 0.07. In the case of A13G A28U U41C U66C, the self-cleavage was 0.13. For the variant A13G A18G A21U G33C U49A A56G A57G, the self-cleavage came to 0.14.

Consider A13G A35G U41A G42A C71U, for which the self-cleavage came to 0.08. Consider A13G A28G U31A U43G A47G G63C U80A, for which the self-cleavage turned out to be 0.03.

Regarding A13G A57G G63U, the self-cleavage was 1.03. Take A13G A28G A64G U74C: the self-cleavage is 0.33.

With A13G A15U U51G A56C, the self-cleavage was 0.23. The same measure for A13G A21G U41A A57G A64U: 0.13.

For the variant A13G A21G C62U, the self-cleavage came out at 0.23. In the case of A13G A45G U67A, the self-cleavage was 0.19. Turning to A13G A56U U67C A77G, the self-cleavage turned out to be 0.16. Take A13G A21G C40U U43A A64U: the self-cleavage turned out to be 0.09.

Regarding A13G A20G U26C U41A U51A G63U U69A, the self-cleavage amounted to 0.04. A13G A20C U41A U43A A65G: the self-cleavage turned out to be 0.04. On to A13G A20U U66C, for which the self-cleavage was 0.3. As for A13G A35U A56G U60C, the self-cleavage turned out to be 0.29. Consider A13G A28U C32A, for which the self-cleavage was found to be 0.24. The same measure for A13G A21U U25C U76C: 0.2; for A13G A18G U41C U43C U69C: 0.27; for A13G A28U A56U A57G: 0.11.

Consider A13G A18G A35G A45G A47U U72A, for which the self-cleavage is 0. As to A13G A18G A21G C27G A47U U78C, the self-cleavage was 0.01.

As for A13G A18U A35G U54C U69A U78C, the self-cleavage is 1.04.

Take A13G A21G U26A U43C U51C C79U: the self-cleavage was 0.42. As for A13G A28G U41A A56G U80C, the self-cleavage came out at 0.52.

Consider A13G A47G A65G, for which the self-cleavage was found to be 0.39.

For the variant A13G A18G U49A, the self-cleavage was 0.14. On to A13G A35U U41G U54A U67C U69A, for which the self-cleavage is 0.04. For the variant A13G A21G C23A A64U, the self-cleavage came to 0.26. A13G A35U A56G A64G A77G: the self-cleavage worked out at 0.23. On to A13G A18G A20G U67C, for which the self-cleavage was 0.22. For the variant A13G A18G A28C G33A U67C, the self-cleavage is 0.03. Turning to A13G A28C C32U C40U A57G U69C, the self-cleavage turned out to be 0.06.

Regarding A13G A15U G22A U31A C38U U41G A75G, the self-cleavage was determined as 0.04. As to A13G A20G U48C A64C, the self-cleavage turned out to be 0.16. Turning to A13G A35G U54G, the self-cleavage is 0.8. Regarding A13G A21G A56G, the self-cleavage stood at 0.38. Consider A13G A21G A56C, for which the self-cleavage came out at 0.19. Turning to A13G A18U A21G G24A C71U, the self-cleavage came out at 0.3. For the variant A13G A28G U48G U51A U60C, the self-cleavage stood at 0. A13G A18G A45G: the self-cleavage amounted to 0.51. For A13G A20U U25C A45G A77G, the self-cleavage is 0.32. Turning to A13G A21G U25A U41A U49A U51G G63A, the self-cleavage amounted to 0.04. The same measure for A13G A20G U48C G52A G63U: 0.08; for A13G A20G U31C A64G A65G U72C: 0.33; for A13G A18C U26C U41C U67A U74C U80C: 0.13. The value for A13G A56G U80A was 0.82; that for A13G A21C A45C was 0.25. As for A13G A15U A20G, the self-cleavage is 0.42. As for A13G A47U U60C, the self-cleavage came out at 0.18. As for A13G A28G C32U U69G, the self-cleavage is 0.07. In the case of A13G A18U A21G U26C C32U, the self-cleavage came to 0.19. Consider A13G A35C U41A A56G U78G C81U, for which the self-cleavage was 0.1. Turning to A13G A20U U80C, the self-cleavage was 0.29. As for A13G A20C C32A, the self-cleavage was 0.23.

Regarding A13G A28C U31C A45G A56U, the self-cleavage was 0.06. In the case of A13G A20G G63A, the self-cleavage amounted to 0.43. The value for A13G A28G C59U C62U A77C was 0.06. The same measure for A13G A18C A20G U31C: 0.46. For the variant A13G A18G A21G A28U U43C, the self-cleavage was 0.34. A13G A20G C71U: the self-cleavage was determined as 0.12. For the variant A13G A20U C37U U67C U72C U76C, the self-cleavage was found to be 0.26.

Consider A13G A15U A35G U72C, for which the self-cleavage came to 0.99. As to A13G A57U A75G, the self-cleavage came out at 0.78. As to A13G A20G U72C U78A, the self-cleavage was determined as 0.79. For the variant A13G A21U U26C C27U A56G, the self-cleavage came to 0.17. For A13G A15U U25C U26G U72C, the self-cleavage amounted to 0.11. As for A13G A47G U80C, the self-cleavage turned out to be 1.07.

For the variant A13G A18U A45G A64U, the self-cleavage came out at 0.04.

As to A13G A18U U54G U80A, the self-cleavage came out at 0.18. For the variant A13G A56G U60C, the self-cleavage was found to be 0.23. As to A13G A56G U60A, the self-cleavage came to 0.27.

A13G A15U U49C U60G: the self-cleavage worked out at 0. A13G A35G C40A U76A: the self-cleavage was 0.08. In the case of A13G A15U U41A U80A, the self-cleavage is 0.13.

On to A13G A20U U41C A75U, for which the self-cleavage is 0.32. For A13G A20C A21G U25C U31A U58A U78C, the self-cleavage worked out at 0. In the case of A13G A20G G33C, the self-cleavage is 0.18. In the case of A13G A45G A57U, the self-cleavage turned out to be 0.59.

Regarding A13G A21G A28G U41A U43A, the self-cleavage stood at 0.36. On to A13G A21G U51A U69C U76C, for which the self-cleavage came to 0.31.

Turning to A13G A45U U67C U80C, the self-cleavage was found to be 0.09. The value for A13G A28G G70C was 0.07; that for A13G A20G A64U was 0.27.

As for A13G A45G A75U, the self-cleavage stood at 0.96. In the case of A13G A57G G61A G73A, the self-cleavage was 0.19. The value for A13G A20G U31A U41C U51A was 0.26; that for A13G A18G U78G was 0.25; that for A13G A18G A64G was 0.22. Take A13G A35U U41C A65G U80C: the self-cleavage was determined as 0.14. Regarding A13G A18U U25C, the self-cleavage turned out to be 0.28.

For A13G A15U U43A U58C U60A G73A U80A, the self-cleavage was determined as 0.16.

Consider A13G A35G U60A, for which the self-cleavage amounted to 0.22. As for A13G A18U A45G G55U G73C A77G, the self-cleavage is 0.09. As to A13G A15U C40A U43A, the self-cleavage amounted to 0.13. The value for A13G A20G U48C U54C was 0.15; that for A13G A20U A21U U43A was 0.14; that for A13G A56G U72C was 0.91.

As for A13G A18C A56U G73A, the self-cleavage was determined as 0.13. For A13G A20G U48C, the self-cleavage worked out at 0.38.

In the case of A13G A35G A56G U72C, the self-cleavage is 0.43. As for A13G A45G U69A, the self-cleavage is 0.45. On to A13G A21U A28U U43C U78C, for which the self-cleavage was 0.1. A13G A21U U51C A57U U76C: the self-cleavage was 0. Regarding A13G A18U G33A A35U, the self-cleavage came to 0.21. On to A13G A21G C23U C38G G42A U54A, for which the self-cleavage was 0.07. The value for A13G A18G A75G was 0.1; that for A13G A20G U31C U51C A57G was 0.36; that for A13G A20G U74A was 1.1. Regarding A13G A35G U51A, the self-cleavage came out at 0.72. The same measure for A13G A45G U67G U69G: 0.19; for A13G A15G U67C C68G: 0.09.

In the case of A13G A56U U80C, the self-cleavage came out at 0.79. Turning to A13G A28C U66C, the self-cleavage stood at 0.09. Turning to A13G A28G U31C C37G, the self-cleavage was 0.3.

A13G A18U U41C U60A G63U: the self-cleavage was 0.25. The value for A13G A35U G61A was 0.15; that for A13G A28U U31C A47G U48C A57G U69C was 0.15; that for A13G A20U U31C was 0.25. A13G A15U C39U A45C U66G U67C: the self-cleavage stood at 0.23. Take A13G A20G A65G: the self-cleavage came out at 0.37.

For A13G A28G C34U, the self-cleavage was determined as 0.19.

As to A13G A18C C29U A56G A65U, the self-cleavage was determined as 0.33. As for A13G A20G A35G U48C A57G A64U, the self-cleavage is 0.06. Consider A13G A18G U69C A75G, for which the self-cleavage worked out at 1.17. Consider A13G A35U U51C U67C, for which the self-cleavage was determined as 0.13. Take A13G A21G U26A C44U A47G U72G A75G: the self-cleavage is 0.04. For the variant A13G A21G G53A G61A A77G C79G, the self-cleavage worked out at 0.39. Turning to A13G A28U A35G G42A A64G U78C, the self-cleavage was 0. The value for A13G A28G U76A was 0.72. With A13G A18G A56G C62A U78A, the self-cleavage amounted to 0.11. Consider A13G A18G C40U U66G G73C U74C, for which the self-cleavage turned out to be 0.07. Regarding A13G A21G C29U A56G C71U, the self-cleavage came out at 0.07. With A13G A47C G52U, the self-cleavage came to 0.19. With A13G A21C U31A A45U U51A U54C U72A, the self-cleavage was found to be 0.04. For the variant A13G A35U U72A, the self-cleavage worked out at 0.24. Consider A13G A35G C39G U69C A77G, for which the self-cleavage stood at 0.21. Turning to A13G A18G G33A U67C, the self-cleavage turned out to be 0.18.

With A13G A47G U60A, the self-cleavage amounted to 0.36. Regarding A13G A15U A56U U74C, the self-cleavage was found to be 0.2. The same measure for A13G A35G U43A U49C: 0.09; for A13G A18U A57G A64G: 0.15; for A13G A21G U31C U48C G52A: 0.03. Regarding A13G A18G U41C A47G A64G U66A, the self-cleavage came out at 0.05. Turning to A13G A18G U26C, the self-cleavage was 0.37. Turning to A13G A18C U31C U60C, the self-cleavage stood at 0.12.

As to A13G A21U U41C U43C U60C, the self-cleavage is 0.56. The value for A13G A28G G30U U41A A57C was 0.07; that for A13G A28U G30A U49C A56G A65U was 0.13. Turning to A13G A35U C62U, the self-cleavage is 0.17. Turning to A13G A20G U60G, the self-cleavage was 0.17. Take A13G A45G U51C A57G: the self-cleavage was found to be 0.29.

For the variant A13G A20U U54G G63A, the self-cleavage amounted to 0.17.

For A13G A18G A45G A47U, the self-cleavage amounted to 0.29. In the case of A13G A21G U72C, the self-cleavage was determined as 0.36. On to A13G A56U A65G U72G, for which the self-cleavage was determined as 0.2. On to A13G A20U A56G U78C, for which the self-cleavage is 0.13.

For the variant A13G A28C C50A U54C U66C, the self-cleavage is 0.12.
